Assay results from the RNAGym collection of RNA variant scans (doi:10.7554/elife.90254).
Read counts are not given, so values of variants with three or more changes are uncertain.

B1: OR4K15 (parent)
chain: GUUAACGGUCAUAGGCCAUGGAAACUAGGAGCACCAUUUCGCUGCCAGUGAAGAAAUGAACAAAGAAAAUCUGGGCCAGGCAGGCAUCAAAAGAAAUAGUCUUGCGCUCAACCAGAAAGUCUGUAAUCAUUUUAAGGGUA

Variants of: B1
Test: self-cleavage, relative activity (ratio to wild type); higher = more cleavage; in vitro, sequencing; the parent is a self-cleaving ribozyme

| Variant | self-cleavage |
| --- | --- |
| GUUAACGGUCAUGGGCCAUGGAAACUAGGAGCACCAUUUCGCUGCCAGUGAAGAAAUGAACAAAGAAAAUCUGGGCCAGGCAGGCAUCAAAAGAAAUAGUCUUGCGCCCAACCAGAAAGUCUGUAGUCAUUUUAAGGGUA [A13G U108C A126G] | 0.04 |
| GUUAACGGUCAUAGGCCAUGGAAACUAGGAGCACCAUUUCGCUGCCAGUGAAGAAAUGAACAAAGAAAAUCUGGGCCAGGCAGGCAUCAAAAGAAAUAGUCUCGCGCUCAACCAGGAAGUCUGUAAUCUUUUUAAGGGUA [U103C A116G A129U] | 0.47 |
| GUUAACGGUCACAGGCCAUGGAGGCUAGGAGCACCAUUUCGCUGCCAGUGAAGAAAUGAACAAAGAAAAUCUGGGCCAGGCAGGCAUCAAAAGAAAUAGUCUUGCGCUCAACCAGAAAGUCUGUAAUCAUUUUAAGGGUA [U12C A23G A24G] | 0.8 |
| GUUAACGGUCAUAGGCCAUGGAAACUAGGAGCACCAUCUCGCUGCCAGUGAAGAAAUGAACAAAGAAAAUCUGGGCCAGGCAGGCAUCGAAAGUAAUAGUCUUGCGCUCAACCAGAAAGUCUGUAAUCAUUUUAAGGGUA [U38C A89G A94U] | 0.79 |
| GUUAACGGUCAUAGGCCAUGGAAACUAGGAGCACCAUUUCGCUGCCAGUGUAGAAAUGAACAAGGAAAAUCUGGGCCAGGCAGGCAUCAAAAGAGAUAGUCUUGCGCUCAACCAGAAAGUCUGUAAUCAUUUUAAGGGUA [A51U A64G A95G] | 2.35 |
| GUUAACGGUCAUAGGCCAUGGAAACUUGGAGCACCAUCUCGCUGCCAGUGAAGAAAUGAACAAAGAAAAUCUGGGCCAGGCAGGCAUCAAAAGAAAUAGUCUUGCGAUCAACCAGAAAGUCUGUAAUCAUUUUAAGGGUA [A27U U38C C107A] | 0.01 |
| GUUAACGGUCUUAGGCCAUGGAAACUAGGAGCACCACUUCGCUGCCAGUGAAGAAAUGAACAAAGAAAAUCUGGGCCAGGCAGGCAUCAAAAGAAAUAGUCUUGCGCUCAACCAGAAUGUCUGUAAUCAUUUUAAGGGUA [A11U U37C A118U] | 0.79 |
| GUUAACGGCCAUAGGCCAUGGAAGCUAGGAGCACCAUUUCGCUGCCAGUGAAGAAAUGAACAAAGAAAAUCUGGGCCAGGCAGGCAUCGAAAGAAAUAGUCUUGCGCUCAACCAGAAAGUCUGUAAUCAUUUUAUGGGUA [U9C A24G A89G A135U] | 0.64 |
| GUUAACGGCCAUAGGCCAUGGAAACUAGGAGCACCAUUUCGCUGCCAGUGAAGAAAUGAACAAAGAAAAUCUGGGCCAGGCAGGCUUCAAAAGAAAUAGUCUCGCGCUCAACCAGAAAGUCUGUAAUCAUUUUAAGGGUA [U9C A86U U103C] | 1.67 |
| GUUAACGGUAGUAGGCCAUGGAAACUAGGAGCACCAUUUCGCUGCCAGUGAAGAAAUGAACAAAGAAAAUCUGGGCCAGGCAGGCAUCAAAAGUAAUAGUCUUGCGCUCGACCAGAAAGUCUGUAAUCAUUUUAAGGGUA [C10A A11G A94U A110G] | 0.06 |
| GUUAACGGUCUUAGGCCAUGGGAACUAGGAGCACCAUUUCGCUGCCAGCGAAGAAACGAACAAAGAAAAUCUGGGCCAGGCAGGCAUCAAAAGAAAUAGUCUUGCGCUCAACCAGAAAGUCUGUAAUCAUUUUAAGGGUA [A11U A22G U49C U57C] | 1.1 |
| GUUAACGGUCAUAGGCCAUGGAAACUAGGAGCACCAUUUCGCUGCCAGUGAAGAAAUGAACAAAGGAAAUCUGGGCCAGGCAGGCAUCAAGAGAAAUAGUCUUGCGCUCAACCAGGAAGUCUGUAAUCAUUUUAAGGGUA [A66G A91G A116G] | 0.43 |
| GUUAACGGUCAUAGGCCAUGGAUACUAGGAGCACCAUUUCGCUGCCAGUGAAGAAAUGAACAAAGAAAAUCUGGGCCAGGCAGGCAUCAAAAGGAAUAGUCUUGCGCUCAACCAGAAAGUCUGUAAUCGUUCUAAGGGUA [A23U A94G A129G U132C] | 1 |
| GUUAACGGUCAUAGGCCAUGGAAACUAGGAGCACCAUUUCGCUGCCAGUGAUGAAAUGGACAAAGAUAAUCCGGGCCAGGCAGGCAUCAAAAGAAAUAGUCUUGCGCUCAACCAGAAAGUCUGUAAUCAUUUUAAGGGUA [A52U A59G A67U U72C] | 0.53 |
| GUUAACGGUCGUAGGCCAUGGAAACUAGGAGCACCAUUUCGCUGCCAGUGAAGAAAUGAACAAAGAAAAUCUGGGCCAGGCAGGCAUCAAAAGAGAUGGUCUUGCGCUCAACCAGAAAGUCUGUAAUCACUUUAAGGGUA [A11G A95G A98G U130C] | 0.68 |
| GUUAGCGGUCAUAGGCCAUGGAAACUAGGAGCACCAUUUCGCUGCCAGUGAAGAAAUGAACAAAGAAAUUCUGGGCCAGGCAGGCAUCAAAAGAAUUAGUCUUGCGCUCAACCAGAAAGUCUGUAAUCAUUUUAAGGGUA [A5G A69U A96U] | 1.04 |
| GUUAACGGUCAUAGGCCAUGGAAACUAGGAGCACCAUUUCGCUGCCAGUGAAGAAGUGAACAAAGAAAAUCUGGGCCAGGCAGGCAUCAAAAGGAAUAGUCCUGCGCUCAACCAGAAAGUCUGUAAUCAUUUUAAGGGUA [A56G A94G U102C] | 1.29 |
| GUUAACGGUCAUAGGCCAUGGAAACUAGGAGCACCAUUUCGCUGCCAGCGAAGAAAUGAGCAAAGAAAAUCUGGGCCAGGCUGGCAUCGAAAGAAAUAGCCUUGCGCCCAACCAGAAAGUCUGUAAUCAUUUUAAGGGUA [U49C A60G A82U A89G U100C U108C] | 0.01 |
| GUUAACGGUCGUAGGCCAUGGAAACUAGGAGCACCAUUUCGCUGCCAGUGAAGAAAUGAACAAAGAAAAUCUGGGCCAGGCAGGCAUCAAAAGAAAUAGUCUUGCGCUCAACCAGAACGUCUGCAAUCAUUUUAAGGGUA [A11G A118C U124C] | 0.06 |
| GUUAACGGUCAUAGGCCAUGGAAACUAGGAGCACCAUUUCGCUGCCAGUGAAGAAAUGAACAAAGGGAAUCUGGGCCAGGCAGGCAUCAAAAGAAUUAGUCUUGCGCUCAACCAGAGAGUCUGUAAUCAUUUUAAGGGUA [A66G A67G A96U A117G] | 1.63 |
| GUUAACGGUCAUAGGCCAUGGAAACUAGGAGCACCAUUUCGCUGCCAGUGAAGAAAUGAACUAAGAAGAUCUGGGCCAGGCAGGCAUCCAAAGAAAUAGUCUUGCGCUCAACCAGAAAGUCUGUAAUCAUUUUAAGGGUA [A62U A68G A89C] | 0.88 |

| Variant | self-cleavage |
| --- | --- |
| GUUAACGGUCAUAGGCCAUGGAAACUAGGAGCACCAUUUCGCUGCCAGUGAAGAAAUGAACAAAGAAAAUAUGUGCCAGGCGGGCAUCAAAAGAAAUAGUCUUGCGCUCAACCAGAAAGUCUGUAAUCGUUUUAAGGGUA [C71A G74U A82G A129G] | 0.06 |
| GUUAACGGUCAUAGGCCAUGGAAACUAGGAGCACCAUUUCGCUGCCAGUGAAGAAAUGGACAAAGAAAAUCAGGGCCAGGCAGGCAUCAAAUGAAAUAGUCCUGCGCUCAACCAGAAAGUCUGUAAUCGUUUUAAGGGUA [A59G U72A A92U U102C A129G] | 0.26 |
| GUUAACGGUCAUAGGCCAUGGAAACUAGGAGCACCAUUUCGCAGCCAGUGAAGAAAUGAACAAGGAAAAUCUGGGCCAGGCAGGCAUCAAAAGAGAUAGUCUUGCGCUCAACCAGAAAGUCUGUAAUCAUUUUAAGGGUA [U43A A64G A95G] | 1.8 |
| GUUAACGGUCAUAGGCCAUGGAAGCUAGGAGCACCAUUUCGCUGCCAGUGAUGAGAUGAGCAAAGAUAAUCUGGGCCAGGCAGGCAACCAAAGAAAUAGUCUUGCGCUCAACCAGAAAGUCUGUAGUCAUUUUAAGGGUA [A24G A52U A55G A60G A67U U87A A89C A126G] | 0.76 |
| GUUAACGGUCAUAGGCCAUGGAGACUAGGAGCACCAUUUCGCUGCCAGUGAAGAAAUGAACAAAGAAAAUCUGGGCCGGGCAGGCAUCAAAAGAAAUAGUCUUGCGCUCAACCAGAAAGUCUGUAAUCAUUCUAAGGGUA [A23G A78G U132C] | 0.28 |
| GUUACCGGUCAUAGGCCAUGGAAACUCGGAGCACCAUUACGCUGCCAGUGAAGAAAUGAACAAGGAAAAUCUGGGCCAGGCAGGCAUCAAAAGAAACAGUCUUGCGCUCAACCAGAAAGUCUGUAAUCAUUUUAAGGGUA [A5C A27C U39A A64G U97C] | 1.14 |
| GUUAACGGUCAUAGGCCAUGGAAACUAGGAGCACCAUUUCGCUGCCAGUGAAGAAAUGAACAAAGAAAAUCUGGGCCAGGCAGGCAUCAAAAGAAAUAGUCUUGCGCUCAUCCAGAGAGUCUGUAAACGCCUUAAGGGUA [A111U A117G U127A A129G U130C U131C] | 0 |
| GUUAACGGUCAUAGGCCAUGGAAACUAGGAGCGCCAUUUCGCUGCCAGUGAAGAAAUGAACAAGGAAAAUCUGGGCCAGGCAGGCAUCAGAAGAAAUAGUCUUGUGCUCAACCAGGAAGUCUGUAAUCAUUCUAAGGGUA [A33G A64G A90G C105U A116G U132C] | 0.04 |
| GUUAACGGUCAUAGGCCAUGGAAGCUAGGAGCACCAUCUCGCUGCCAGUGAAGAAAUGAACAAAGAAAAUCUGGGCCAGGCAGGCAUCAAAAGAAAUAGACUUGCGCUCAACCAGAAAGUCUGUAAUCAUUUUAAGGGUA [A24G U38C U100A] | 1.13 |
| GUUAACGGUCAUAGGCCAUGGAAGCUAGGAGCACCAUUUCGCUGCCAGUGAAGGAAUGAACAAUGAAAAUCUGGGCCAGGCAGGCAUCAAAAGGAAUAGUCUUGCGCUCAACCAGAAAGUCUGUAAUCAUUUUAAGGGUA [A24G A54G A64U A94G] | 1.49 |
| GUUAACGGUCAUAGGCCAUGGAAACUAGGAGCACCAUUUCGCUGCCAGUGAAGAAGUGGGCAAAGAAAAUCUGGGCCAGGCAGGCAUCAGAAGAAAUAGUCUCGCGCUCAACCAGAAAGUCUGUAAUCAUUUUAAGGGUA [A56G A59G A60G A90G U103C] | 0.37 |
| GUUAACGGUCAUAGGCCAUGGAAACUAGGAGCACCAUUCCGCUGCCAGUGAGGAAAUGAACAAAGAAAGUCUGGGCCAGGCAGGCAUCAAAAGAAAUAGUCUUACGCUAAACCAGAAAGUCUGUAAUCAUUUUAAAGGUG [U39C A52G A69G G104A C109A G136A A140G] | 0 |
| GUUAACGGUCAUGGGCCAUGGAAACUGGGAGCACCAUUUCGCUGCCAGUGAAGAAAUGAACAAAGAAAAUCUGGGCCAGGCAGGCAUCAAAAGAAAAAGUCUUGCGCUCAACCAGAAAGUCUGUAAUCAUUUUAAGGGUA [A13G A27G U97A] | 0.23 |
| GUUAACGGUCAUAGGCCAUGGAAGCUAGGAGCACCAUUUCGCUGCCUGUGAAGAAAUGAACAAAGAAAAUCUGGGCCAGGCAGGCAUCACAAGAAAUAGUCAUGCGCUCAACCAGAAGGUCUGUAAUCAUUUUAAGGGUA [A24G A47U A90C U102A A118G] | 0.14 |
| GUUAACGGUCAUAGGCCAUGGAAACUAGGAGCACCAUUUCGCUGCCAGUGAAGAAAUGAACAAAGAGAAUCUGGGCCAGGCUGGUAUCAAAAGAAAUAGUCUUGCGCUCAACCAGGAAGUCCGUGAUCAUUUUAAGGGUA [A67G A82U C85U A116G U122C A125G] | 0.01 |
| GUUAACGGUCAUAGGCCAUGGAAACUAGGAGCACCAUUUCGCUGCCAGUGAAGAAAUGAACAAAGAAAAUCUGGGCCAGGCAGGCAUCGAAAGACAUAGUCUUGCGCUUAACCAGAAAGUCUGUAAUCAUUUUAAGGGUA [A89G A95C C109U] | 0.64 |
| GUUAACGGUCAUAGGCCAUGGAAACUAGGAGCACCGUUUCGCUGCCAGUGAAGAAAUGAACAAAGAAAAUCUGGGCCAGGCAGGCAUCAAAAGAAGUAGUCCUGCGCUCAACCAGAAGGUCUGUAAUCAUUUUAAGGGUA [A36G A96G U102C A118G] | 1.51 |
| GUUAACGGUCAUAGGCCAUGGAAACUAGGAGCACCUUUUCGCUGCCAGUGAAGGAAUGAACAAAGAGAAUCUGGGCCAGGCAGGCAUCAAAGGAAAUAGUCUUGCGCUCAACCCGAAAGUCUGUAAUCAUUUUAAGGGUA [A36U A54G A67G A92G A114C] | 0.03 |
| GUUAACGGUCAUAGGCCAUGGAAACUAGGAGCACCAUUUCGCUGCCAGUGAAGAAAUGAGCAAAGAAAAUCUGGGCCAGGCAGGCUUCAAAGGAGAUAGUCUUGCGCUCGACCAGGAAGUCUGUAAUCAUUUUAAGGGUA [A60G A86U A92G A95G A110G A116G] | 0.08 |
| GUUAACGGUCAUAGGCCAUGGAAACUAGGAGCACCAUUUCGCUGCCAGUGAAGAAAUGAACAGAGAAAAUCUGGGCCGGGCAGGCAUCAAAAGGAAUAGUCUUGCGCUCAACCAGAAAGUCUGUAAUCAUUUUAAGGGUA [A63G A78G A94G] | 0.16 |
